Source: patent US20230050440A1 (Seagen, published 2023)

Target: T1, human high affinity FcγRIIIa V/V receptor expressed on CHO cells (human, UniProt P08637)
T1 construct: whole, on cells
Assay: flow cytometry on CHO cells transfected with human FcγRIIIa 158V (CHO/hCD16), fluorescent anti-human Fc secondary antibody

T1 sequence (P08637 17-254 F176V): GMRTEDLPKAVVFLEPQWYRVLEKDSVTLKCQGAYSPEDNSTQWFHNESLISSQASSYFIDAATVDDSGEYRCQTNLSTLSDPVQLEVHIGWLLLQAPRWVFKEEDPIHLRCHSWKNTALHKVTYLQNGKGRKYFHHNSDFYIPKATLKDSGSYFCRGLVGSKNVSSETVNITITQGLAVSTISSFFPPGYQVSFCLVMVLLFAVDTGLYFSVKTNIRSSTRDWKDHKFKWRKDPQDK

EC50 (read off the curve): ~0.8 µg/mL
B1: clone 13 IgG1 DLE (antibody)
heavy: QVQLVQSGAEVKKPGSSVKVSCKASGGTFSSYAISWVRQAPGQGLEWMGSIIPIFGTANYAQKFQGRVTITADESTSTAYMELSSLRSEDTAVYYCARGPSEVGAILGYVWFDPWGQGTLVTVSSASTKGPSVFPLAPSSKSTSGGTAALGCLVKDYFPEPVTVSWNSGALTSGVHTFPAVLQSSGLYSLSSVVTVPSSSLGTQTYICNVNHKPSNTKVDKKVEPKSCDKTHTCPPCPAPELLGGPDVFLFPPKPKDTLMISRTPEVTCVVVDVSHEDPEVKFNWYVDGVEVHNAKTKPREEQYNSTYRVVSVLTVLHQDWLNGKEYKCKVSNKALPLPEEKTISKAKGQPREPQVYTLPPSRDELTKNQVSLTCLVKGFYPSDIAVEWESNGQPENNYKTTPPVLDSDGSFFLYSKLTVDKSRWQQGNVFSCSVMHEALHNHYTQKSLSLSPGK
light: not shown
notes: also called Clone 13 DLE
